Screen size: about 310,000 compounds; about 14,000 (4.5%) showed an effect of 50% or more. Effects have a minus sign here. Some of the results follow.
Molecular target: human ether-à-go-go-related gene (hERG) potassium channel (human, UniProt Q12809)
Test: primary screen, population patch clamp on CHO cells stably expressing hERG
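Note: peak tail current of the secondary pulse compared with the same well before compound.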

Sequence of human ether-à-go-go-related gene (hERG) potassium channel (Q12809 whole entry, looked up): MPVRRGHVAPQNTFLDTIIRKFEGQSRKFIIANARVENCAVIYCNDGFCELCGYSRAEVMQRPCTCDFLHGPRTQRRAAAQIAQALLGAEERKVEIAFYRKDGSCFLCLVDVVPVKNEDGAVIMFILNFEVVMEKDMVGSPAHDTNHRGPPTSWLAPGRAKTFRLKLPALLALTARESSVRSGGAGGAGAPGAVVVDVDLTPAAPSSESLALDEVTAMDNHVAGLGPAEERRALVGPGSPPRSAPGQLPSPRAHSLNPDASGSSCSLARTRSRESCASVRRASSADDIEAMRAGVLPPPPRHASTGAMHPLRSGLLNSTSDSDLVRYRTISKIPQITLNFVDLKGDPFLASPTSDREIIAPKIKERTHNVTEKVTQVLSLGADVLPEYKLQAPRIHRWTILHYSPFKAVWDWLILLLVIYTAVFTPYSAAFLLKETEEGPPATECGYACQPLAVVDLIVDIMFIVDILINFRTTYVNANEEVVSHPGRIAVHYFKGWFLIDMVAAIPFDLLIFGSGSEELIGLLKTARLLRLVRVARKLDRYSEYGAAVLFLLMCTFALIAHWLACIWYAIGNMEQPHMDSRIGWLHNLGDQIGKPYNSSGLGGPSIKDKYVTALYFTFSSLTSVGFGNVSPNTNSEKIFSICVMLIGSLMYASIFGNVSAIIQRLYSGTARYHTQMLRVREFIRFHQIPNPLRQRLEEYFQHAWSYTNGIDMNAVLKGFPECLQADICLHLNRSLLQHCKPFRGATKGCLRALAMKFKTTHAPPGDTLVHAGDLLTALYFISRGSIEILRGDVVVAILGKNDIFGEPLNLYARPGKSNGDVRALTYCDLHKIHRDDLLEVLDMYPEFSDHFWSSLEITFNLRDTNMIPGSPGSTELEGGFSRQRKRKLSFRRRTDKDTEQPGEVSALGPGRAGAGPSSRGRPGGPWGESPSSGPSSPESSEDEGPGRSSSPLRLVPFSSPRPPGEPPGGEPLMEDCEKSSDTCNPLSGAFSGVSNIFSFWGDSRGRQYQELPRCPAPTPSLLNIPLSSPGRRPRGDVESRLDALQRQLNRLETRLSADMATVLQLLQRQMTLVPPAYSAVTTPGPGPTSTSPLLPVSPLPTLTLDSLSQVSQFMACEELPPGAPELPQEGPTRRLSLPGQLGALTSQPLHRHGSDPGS

Structure (SMILES)	hERG current change (%, negative = inhibition) at 10uM
O=S(=O)(NCc1ccccc1)c1ccc(Cl)cc1	0.117%
O.O=c1c2sc3nc(N4CCOCC4)c4c(c3c2nnn1Cc1ccccc1)CCCC4	1.88%
COc1cccc(NC(=O)Cn2c(=O)n(CCC(=O)NC3CCN(Cc4ccccc4)CC3)c(=O)c3ccccc32)c1	-57.6%
NC(=O)CSc1nnc(Cc2cccs2)n1C1CCCCC1	7.21%
COc1ccc(C(NC(=O)c2ccc(F)cc2)c2ccccc2)cc1 (centres unmarked)	-17.2%
Fc1cccc(Cl)c1Cn1nnc2c(N3CCC4(CC3)OCCO4)ncnc21	11.4%
O=C(CNC(=O)c1ccccc1F)NC1CC1	2.71%
Cc1oc(-c2ccccc2Cl)nc1CS(=O)(=O)CC(=O)NC1CCCC1	-6.93%
COc1ccc(S(=O)(=O)N2CCN(c3c(C)cccc3C)CC2)cc1OC	-13.6%
COc1ccc2c(c1)S(=O)(=O)c1ccccc1N2	-3.49%
Cc1ccc(S(=O)(=O)N2CCN(Cc3ccccc3C(F)(F)F)CC2)cc1	-5.53%
COc1ccc(NC(=O)N2CCC(CO)(CC3CCCCO3)CC2)c(OC)c1 (centres unmarked)	22.1%
CCN(Cc1ccc2c(c1)OCO2)C(=O)/C=C/c1cccc(Br)c1	9.75%
Cc1cccc(C(=O)Nc2nc(C)c(C(=O)Nc3ccc4c(c3)CCC4)s2)c1	6.7%
Cc1cc(Oc2nnnn2-c2ccccc2)ccc1Cl	-15.3%
COc1ccc2c(c1)C(c1ccccc1)NC(=O)C2 (centres unmarked)	4.01%
CCOC(=O)c1c(NC(=O)CC2Nc3cc(C)c(C)cc3NC2=O)sc(C)c1C (centres unmarked)	3.52%
Cc1cc(NS(=O)(=O)c2ccc(Nc3nc(-c4ccc(O)cc4)cs3)cc2)no1	8.1%
O=C(O)c1cccc(COc2cccc3ccccc23)c1	8.71%
Cc1ccc(/C=C/C(=O)c2ccccc2O)cc1	29.5%
CCCCC1=CC2=CC(=O)C(C)(OC(=O)CC)C(=O)C2=CN1c1ccccc1 (centres unmarked)	1.5%
c1ccc(-c2cc3c(nn2)CCc2nonc2-3)cc1	0.384%
O=C(NC(=S)Nc1ccc2c(c1)C(=O)c1ccccc1C2=O)c1ccc(F)cc1	19.7%

Structure (SMILES)	hERG current change (%, negative = inhibition) at 10uM
O=C1CC(=O)N(c2cccc(C(F)(F)F)c2)C(=O)N1	25%
CCCOC(=O)NC1CCS(=O)(=O)C1 (centres unmarked)	5.66%
Cc1c(C(=O)NCCc2ccccc2)oc2ccccc12	1.98%
CCc1nnc2n1N=C(c1ccc([N+](=O)[O-])cc1)CS2	-65.5%
c1ccc(-c2nc(N3CCOCC3)c3ccccc3n2)nc1	-15.9%
N#CCSc1nc2ccccc2c2nc3ccccc3n12	-0.29%
CC1CCc2cc(F)ccc2N1C(=O)c1ccc2c(c1)OCO2 (centres unmarked)	-8.64%
C/C(=N/NS(=O)(=O)c1cccc([N+](=O)[O-])c1)c1ccc2c(c1)OCO2	6.48%
O=C(Nc1ccccc1)C1(c2ccccc2)CC1(Cl)Cl (centres unmarked)	-18.1%
COc1ccc2c(c1OC)C(=O)OC2CC(=O)c1ccc(N(C)C)cc1 (centres unmarked)	-1.02%
CCN(CCn1cccn1)C(=O)C1CCC(=O)N(CCN2CCOCC2)C1 (centres unmarked)	6.14%
CC(C)C[C@@]12C(=O)N(c3cccc(Cl)c3)C(=O)N1[C@H](c1ccc(Br)cc1)[C@@H]1C(=O)N(C(C)(C)C)C(=O)[C@@H]12	22.7%
CC1(c2ccc(OC(F)F)cc2)NC(=O)N(CC(=O)Nc2ccc(F)cc2)C1=O (centres unmarked)	-45.5%
Clc1ccccc1Nc1nc(-c2cccnc2)cs1	11.9%
O=C(CCN=C1NS(=O)(=O)c2ccccc21)OCC(=O)c1ccccc1Cl	-7.78%
N#Cc1ccccc1OCC(=O)OCC(=O)N1CCN(C(=O)c2ccco2)CC1	3.22%
O=C(COc1ccc2ccccc2c1)N1c2ccccc2Sc2ccccc21	-2.83%
COc1ccc(C)cc1N1C(=N)/C(=C2/Nc3ccccc3S2)C(c2ccccc2)C1=O (centres unmarked)	5.63%
COc1ccc2c(c1)C1NC(=S)N[C@@](C)(O2)C1C(=O)Nc1ccccc1 (some centres unmarked)	-3.49%
COc1cccc(-c2cc(C(F)(F)F)n3ncc(C(=O)O)c3n2)c1	-1.46%
CCOC(=O)Cn1c(C)cc(COC)c(C#N)c1=O	18.6%
CCc1csc(CCNC(=O)C2CCC(=O)N(Cc3cccc(C(F)(F)F)c3)C2)n1 (centres unmarked)	4.29%
Cc1ccc(S(=O)(=O)N2CCN(C(=O)Cc3ccccc3)CC2)cc1C	-2.97%

Structure (SMILES)	hERG current change (%, negative = inhibition) at 10uM
CCc1ccc(OCC(=O)N(Cc2cccs2)C2CCS(=O)(=O)C2)cc1 (centres unmarked)	-47.8%
O=C(NCCCCc1ccccc1)Nc1ccc(F)cc1	18.1%
CCOc1cc(C2C(C(=O)N3CCOCC3)=C(C)NC3=C2C(=O)CCC3)ccc1O (centres unmarked)	2.55%
CCCC(C)NC(=O)c1ccc(-c2ccccc2)cc1 (centres unmarked)	15.4%
O=C(CNC(=O)c1ccc(S(=O)(=O)N2CCCC2)cc1)N/N=C/c1ccccc1Cl	-8.14%
CC(C)CCn1c(N)c(C(=O)NCc2cccs2)c2nc3ccccc3nc21	-3.01%
O=C(NN1C(=O)C2C3C=CC(C3)C2C1=O)c1ccncc1 (centres unmarked)	2.17%
COC(=O)c1nn(-c2cccc(Cl)c2)ccc1=O	6.98%
CN1OC(Cn2cc(C#N)c(=O)n(C)c2=O)CC1c1ccccc1 (centres unmarked)	12.5%
C1=C2C[N+]3(CCCC3)CC2Cc2ccc3ccccc3c21.[Br-] (centres unmarked)	5.2%
CC(SCc1ccccc1)C(=O)NC1CCCC1 (centres unmarked)	3.27%
O=C1CN(C(=O)COC(=O)CCS(=O)(=O)c2ccccc2)c2ccccc2N1	19.1%
O=C(O)Cn1c(SCc2cccc3ccccc23)nc2ccccc21	6.65%
O=C(Nc1ccccc1C(=O)NC(Cc1ccccc1)C(=O)O)c1ccccc1 (centres unmarked)	23.9%
OC1CCN(Cc2cccc(Oc3ccccc3)c2)CC1	6.4%
Clc1ccc2nc(CSc3nc4ccccc4o3)cn2c1	-12.1%
Cc1nn2c(-c3ccncc3)ccnc2c1Cl	4.94%
Cc1ccc2c(CSc3nc4ccccc4c(=O)n3CCCO)cc(=O)oc2c1C	1.98%
COc1ccc(CCNc2oc(COc3ccccc3Cl)nc2C#N)cc1OC	-8.13%
CCC1Oc2ccc(C)cc2N(CC(=O)NCc2cccc(OC)c2)C1=O (centres unmarked)	-8.94%
COc1cc(C(=O)NCc2ccco2)cc(OC)c1OC	15.1%
O=C1CCCCC1C(Nc1ccc(Br)cc1)c1ccccc1 (centres unmarked)	4.34%
CCCCNC(=O)c1cc2c(-c3ccc(Cl)cc3)nn(C)c2s1	-7.09%

Structure (SMILES)	hERG current change (%, negative = inhibition) at 10uM
Cn1c(SCC(=O)NC(C)(C)C)nc(O)cc1=O	5.81%
CC[N+](C)(C)c1cccc(O)c1.[Cl-]	8.67%
Cc1ccc2c(c1)N(CCCC(=O)NCc1ccc3c(c1)OCO3)C(=O)CO2	-17.3%
CCCNC(=O)COc1ccccc1[N+](=O)[O-]	-13.3%
Cn1ccc(O)c(C#N)c1=O	7.16%
CCn1c(Cc2ccccc2)nnc1SCC(=O)c1cccc([N+](=O)[O-])c1	-24%
CCC(NC(=S)Nc1ccccc1)C(=O)O (centres unmarked)	5.38%
CCOc1ccccc1N1CCN(CC(=O)NC(C)c2ccccc2)CC1 (centres unmarked)	5.56%
Cc1[nH]c2ccccc2c1/C=N/NC(=O)c1cc(-c2cccs2)[nH]n1	4.01%
COc1ccc(NS(=O)(=O)c2cc(NC(=O)C3CCCCC3)ccc2N2CCOCC2)cc1	-0.943%
CCN1C(=O)[C@H]2[C@@H](c3ccc(C)cc3)N3C(=O)N(c4ccc(C)cc4)C(=O)[C@@]3(Cc3ccc(Cl)cc3)[C@H]2C1=O	10.9%
OC(COc1ccc2ccccc2c1Cl)CN1CCOCC1 (centres unmarked)	-24.5%
CCOC(=O)C1=C(Nc2ccccc2)CC(C)(O)C(C(=O)OCC)C1c1ccccc1 (centres unmarked)	15%
N/C(=N\OC(=O)COc1ccc2ccccc2c1)c1ccncc1	16.6%
CCc1nnc(NC(=O)CSCc2cc(=O)n3ccsc3n2)s1	18.8%
Cc1ccc(-n2c(-c3ccc([N+](=O)[O-])cc3)nc3ccccc3c2=O)cc1	-25%
COc1ccc(NC(=O)c2sccc2-n2cccc2)cc1	3.64%
COc1cccc(N2CCN(S(=O)(=O)c3ccc(-c4cnc(C5CC5)o4)cc3)CC2)c1	13.8%
CC1C=CCC2C(=O)N(c3ccccc3OC(=O)c3ccco3)C(=O)C12 (centres unmarked)	9.53%
COCCOc1cc(NC(=O)c2sccc2Oc2ccc([N+](=O)[O-])cc2F)c(Cl)cc1Cl	-0.0545%

Source: PMC4336329 (PLoS ONE, 2015)
